# Experimental data as given in publication PMC7480101.
# Sequences of proteins named here, by UniProt entry; tags and fusion partners are left off. A change or cut given only in a name is not applied to a line headed by its entry. A line that says so, or that is headed by a name, gives the form on record, which may keep a tag or linker.
# UniProt Q14596: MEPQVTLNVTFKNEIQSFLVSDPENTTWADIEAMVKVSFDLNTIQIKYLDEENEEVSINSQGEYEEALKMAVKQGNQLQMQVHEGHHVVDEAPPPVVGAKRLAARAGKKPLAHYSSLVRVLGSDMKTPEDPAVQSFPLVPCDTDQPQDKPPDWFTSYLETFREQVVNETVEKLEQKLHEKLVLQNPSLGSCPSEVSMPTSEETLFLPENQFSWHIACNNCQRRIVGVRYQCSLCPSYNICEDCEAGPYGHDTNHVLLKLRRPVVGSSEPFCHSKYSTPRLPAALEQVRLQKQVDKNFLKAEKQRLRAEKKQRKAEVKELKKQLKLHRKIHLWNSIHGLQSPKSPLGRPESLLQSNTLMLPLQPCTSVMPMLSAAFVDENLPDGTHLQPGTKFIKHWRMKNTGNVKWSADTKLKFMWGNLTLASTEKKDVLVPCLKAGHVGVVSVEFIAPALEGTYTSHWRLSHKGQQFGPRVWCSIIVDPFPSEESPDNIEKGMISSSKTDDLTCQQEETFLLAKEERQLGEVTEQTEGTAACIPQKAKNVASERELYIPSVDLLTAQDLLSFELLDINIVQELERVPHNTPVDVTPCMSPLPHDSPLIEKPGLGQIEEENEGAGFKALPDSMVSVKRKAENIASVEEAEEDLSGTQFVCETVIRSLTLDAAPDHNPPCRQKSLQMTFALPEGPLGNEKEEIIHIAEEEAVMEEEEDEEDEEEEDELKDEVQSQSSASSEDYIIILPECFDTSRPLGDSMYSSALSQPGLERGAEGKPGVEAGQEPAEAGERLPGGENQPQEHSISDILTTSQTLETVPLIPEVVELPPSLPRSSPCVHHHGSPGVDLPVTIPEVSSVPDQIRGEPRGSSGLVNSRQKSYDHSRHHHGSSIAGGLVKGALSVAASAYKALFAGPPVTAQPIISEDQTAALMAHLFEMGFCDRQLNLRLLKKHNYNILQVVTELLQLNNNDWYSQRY
# UniProt Q96CV9: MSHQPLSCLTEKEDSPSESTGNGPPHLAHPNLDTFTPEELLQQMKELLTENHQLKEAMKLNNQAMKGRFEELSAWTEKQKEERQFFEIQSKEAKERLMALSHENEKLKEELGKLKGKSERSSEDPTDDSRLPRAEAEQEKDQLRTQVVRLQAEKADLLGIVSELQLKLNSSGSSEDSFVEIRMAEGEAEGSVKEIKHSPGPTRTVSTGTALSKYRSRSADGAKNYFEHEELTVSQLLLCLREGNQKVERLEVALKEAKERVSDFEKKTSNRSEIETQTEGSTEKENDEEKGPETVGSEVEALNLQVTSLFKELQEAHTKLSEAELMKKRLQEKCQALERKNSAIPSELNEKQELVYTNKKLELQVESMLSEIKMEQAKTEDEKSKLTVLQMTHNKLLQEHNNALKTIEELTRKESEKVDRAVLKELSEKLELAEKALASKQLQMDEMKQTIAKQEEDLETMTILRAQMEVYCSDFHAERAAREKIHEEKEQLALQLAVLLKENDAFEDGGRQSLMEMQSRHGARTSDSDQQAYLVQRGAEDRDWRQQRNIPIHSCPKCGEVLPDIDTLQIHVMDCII
# hAG-OPTN(138-5A-142, S473E) (Q96CV9, form named): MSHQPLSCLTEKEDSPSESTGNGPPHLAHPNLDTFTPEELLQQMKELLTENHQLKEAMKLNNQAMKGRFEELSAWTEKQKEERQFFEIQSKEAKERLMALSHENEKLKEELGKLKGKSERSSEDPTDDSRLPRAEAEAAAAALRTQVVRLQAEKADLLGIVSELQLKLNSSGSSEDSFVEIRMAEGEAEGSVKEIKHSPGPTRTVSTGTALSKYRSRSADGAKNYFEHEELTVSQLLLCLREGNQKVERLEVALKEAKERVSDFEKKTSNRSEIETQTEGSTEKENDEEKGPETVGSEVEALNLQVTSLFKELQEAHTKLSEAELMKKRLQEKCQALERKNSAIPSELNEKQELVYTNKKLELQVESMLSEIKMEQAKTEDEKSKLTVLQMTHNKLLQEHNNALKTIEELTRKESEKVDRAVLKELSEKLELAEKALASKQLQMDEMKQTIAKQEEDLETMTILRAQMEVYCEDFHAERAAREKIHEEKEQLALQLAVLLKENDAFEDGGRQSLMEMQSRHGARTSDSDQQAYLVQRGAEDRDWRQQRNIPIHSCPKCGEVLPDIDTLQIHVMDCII
# hAG-OPTN(301-577, S473E) (Q96CV9, form named): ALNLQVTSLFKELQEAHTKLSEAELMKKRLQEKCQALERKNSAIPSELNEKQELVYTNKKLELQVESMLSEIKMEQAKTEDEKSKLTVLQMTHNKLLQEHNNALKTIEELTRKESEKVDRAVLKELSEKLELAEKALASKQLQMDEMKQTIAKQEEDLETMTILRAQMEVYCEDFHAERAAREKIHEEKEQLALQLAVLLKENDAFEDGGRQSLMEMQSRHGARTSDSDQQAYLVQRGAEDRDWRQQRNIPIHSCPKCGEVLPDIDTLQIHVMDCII
# hAG-OPTN(148-5A-152, S473E) (Q96CV9, form named): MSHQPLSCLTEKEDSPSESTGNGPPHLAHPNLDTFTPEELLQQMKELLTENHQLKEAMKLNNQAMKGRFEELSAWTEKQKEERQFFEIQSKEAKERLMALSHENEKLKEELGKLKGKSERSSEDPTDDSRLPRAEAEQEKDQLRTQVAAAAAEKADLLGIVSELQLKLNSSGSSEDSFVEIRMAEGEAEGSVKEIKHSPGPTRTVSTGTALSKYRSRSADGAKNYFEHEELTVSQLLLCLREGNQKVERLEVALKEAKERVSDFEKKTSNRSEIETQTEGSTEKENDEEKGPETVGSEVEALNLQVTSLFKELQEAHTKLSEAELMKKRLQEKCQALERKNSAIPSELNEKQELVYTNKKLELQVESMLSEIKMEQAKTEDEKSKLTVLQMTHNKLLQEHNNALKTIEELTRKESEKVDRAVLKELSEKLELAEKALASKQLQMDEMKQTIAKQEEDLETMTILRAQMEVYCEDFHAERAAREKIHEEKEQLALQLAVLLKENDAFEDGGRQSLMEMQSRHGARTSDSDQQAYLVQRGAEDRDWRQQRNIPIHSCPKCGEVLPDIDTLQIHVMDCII
# hAG-OPTN(210-577, S473E) (Q96CV9, form named): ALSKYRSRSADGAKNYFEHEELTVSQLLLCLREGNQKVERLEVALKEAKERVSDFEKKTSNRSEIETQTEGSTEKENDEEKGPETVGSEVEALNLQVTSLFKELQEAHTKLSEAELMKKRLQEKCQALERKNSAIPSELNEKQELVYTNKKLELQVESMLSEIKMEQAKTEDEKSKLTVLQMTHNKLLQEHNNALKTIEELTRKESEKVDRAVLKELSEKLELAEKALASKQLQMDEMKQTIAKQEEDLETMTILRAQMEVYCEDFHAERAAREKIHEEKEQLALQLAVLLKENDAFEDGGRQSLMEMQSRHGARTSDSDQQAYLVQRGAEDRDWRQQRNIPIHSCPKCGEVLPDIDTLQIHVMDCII
# hAG-OPTN(190-577, S473E) (Q96CV9, form named): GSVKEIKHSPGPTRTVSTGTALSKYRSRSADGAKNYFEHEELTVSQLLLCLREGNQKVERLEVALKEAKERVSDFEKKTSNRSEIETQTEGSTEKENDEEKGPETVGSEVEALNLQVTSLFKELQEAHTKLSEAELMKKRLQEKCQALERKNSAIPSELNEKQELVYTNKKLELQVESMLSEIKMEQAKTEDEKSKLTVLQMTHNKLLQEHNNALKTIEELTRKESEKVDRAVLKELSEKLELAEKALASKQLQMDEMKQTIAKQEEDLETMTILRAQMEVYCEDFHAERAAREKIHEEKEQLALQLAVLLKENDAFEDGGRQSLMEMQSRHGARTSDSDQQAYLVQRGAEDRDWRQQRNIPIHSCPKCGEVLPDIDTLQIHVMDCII
# hAG-OPTN(150-577, S473E) (Q96CV9, form named): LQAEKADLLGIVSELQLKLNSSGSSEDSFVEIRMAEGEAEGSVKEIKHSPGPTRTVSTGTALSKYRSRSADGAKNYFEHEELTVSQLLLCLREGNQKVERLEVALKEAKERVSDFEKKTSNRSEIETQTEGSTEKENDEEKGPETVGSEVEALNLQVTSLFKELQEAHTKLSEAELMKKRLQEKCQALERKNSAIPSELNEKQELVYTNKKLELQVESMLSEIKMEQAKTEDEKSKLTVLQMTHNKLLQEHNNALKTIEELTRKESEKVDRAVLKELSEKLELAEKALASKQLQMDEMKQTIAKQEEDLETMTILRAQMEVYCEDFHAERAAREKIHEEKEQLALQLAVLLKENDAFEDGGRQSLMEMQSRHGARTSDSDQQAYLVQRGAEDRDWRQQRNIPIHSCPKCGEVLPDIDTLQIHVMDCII
# 3FLAG-hAG-OPTN(4LA, S473E) (Q96CV9, form named): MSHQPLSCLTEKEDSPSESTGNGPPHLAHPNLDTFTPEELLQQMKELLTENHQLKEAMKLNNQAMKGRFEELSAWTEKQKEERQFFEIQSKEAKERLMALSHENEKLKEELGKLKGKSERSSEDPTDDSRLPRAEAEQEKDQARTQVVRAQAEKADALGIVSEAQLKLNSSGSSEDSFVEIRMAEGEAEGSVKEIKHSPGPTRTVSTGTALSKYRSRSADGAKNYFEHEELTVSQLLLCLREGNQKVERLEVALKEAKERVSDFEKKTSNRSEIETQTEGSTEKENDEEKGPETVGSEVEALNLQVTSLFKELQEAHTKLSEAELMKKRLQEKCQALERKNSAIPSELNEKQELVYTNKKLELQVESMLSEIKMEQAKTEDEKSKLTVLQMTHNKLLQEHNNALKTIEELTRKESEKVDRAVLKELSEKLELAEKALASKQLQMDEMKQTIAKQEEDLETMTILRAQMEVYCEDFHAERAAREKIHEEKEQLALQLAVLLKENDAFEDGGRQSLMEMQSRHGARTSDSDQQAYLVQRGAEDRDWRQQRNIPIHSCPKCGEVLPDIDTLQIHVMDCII
# These are yes or no findings as the source states them, for the method shown. For some of these results: In cells and extracts the contact can be indirect. Some entries that bind do so weakly or less than the wild type.
# B1: ATG9A (protein, UniProt Q7Z3C6 1-839)
# chain: MAQFDTEYQRLEASYSDSPPGEEDLLVHVAEGSKSPWHHIENLDLFFSRVYNLHQKNGFTCMLIGEIFELMQFLFVVAFTTFLVSCVDYDILFANKMVNHSLHPTEPVKVTLPDAFLPAQVCSARIQENGSLITILVIAGVFWIHRLIKFIYNICCYWEIHSFYLHALRIPMSALPYCTWQEVQARIVQTQKEHQICIHKRELTELDIYHRILRFQNYMVALVNKSLLPLRFRLPGLGEAVFFTRGLKYNFELILFWGPGSLFLNEWSLKAEYKRGGQRLELAQRLSNRILWIGIANFLLCPLILIWQILYAFFSYAEVLKREPGALGARCWSLYGRCYLRHFNELEHELQSRLNRGYKPASKYMNCFLSPLLTLLAKNGAFFAGSILAVLIALTIYDEDVLAVEHVLTTVTLLGVTVTVCRSFIPDQHMVFCPEQLLRVILAHIHYMPDHWQGNAHRSQTRDEFAQLFQYKAVFILEELLSPIVTPLILIFCLRPRALEIIDFFRNFTVEVVGVGDTCSFAQMDVRQHGHPQWLSAGQTEASVYQQAEDGKTELSLMHFAITNPGWQPPRESTAFLGFLKEQVQRDGAAASLAQGGLLPENALFTSIQSLQSESEPLSLIANVVAGSSCRGPPLPRDLQGSRHRAEVASALRSFSPLQPGQAPTGRAHSTMTGSGVDARTASSGSSVWEGQLQSLVLSEYASTEMSLHALYMHQLHKQQAQAEPERHVWHRRESDESGESAPDEGGEGARAPQSIPRSASYPCAAPRPGAPETTALHGGFQRRYGGITDPGTVPRVPSHFSRLPLGGWAEDGQSASRHPEPVPEEGSEDELPPQVHKV
# Tests used:
# [1] = molecular target: hAG-NBR1 (human) (UniProt Q14596); experiment: Fluoppi (phase-separated fluorescent foci in cells); hAG-tagged autophagy adaptor and HA-Ash-6Ub transiently co-expressed in HeLa (WT, Penta KO, FIP200 KO, ATG5 KO, ATG9A KO) or HCT116 (WT, TBK1-/-) cells; foci formation and incorporation of a third protein into the foci read by immunostaining and confocal microscopy; some samples with 2 µM BX-795 for 15 h
# [2] = molecular target: hAG-OPTN(138-5A-142, S473E) (human) (UniProt Q96CV9); experiment: as above
# [3] = molecular target: hAG-OPTN(301-577, S473E) (human) (UniProt Q96CV9); experiment: as above
# [4] = molecular target: hAG-p62 (human) (UniProt Q13501); experiment: as above
# [5] = molecular target: hAG-OPTN(M44Q/L54Q, S473E) (human) (UniProt Q96CV9); experiment: as above
# [6] = molecular target: hAG-OPTN (human) (UniProt Q96CV9); experiment: as above
# [7] = molecular target: hAG-OPTN(148-5A-152, S473E) (human) (UniProt Q96CV9); experiment: as above
# [8] = molecular target: hAG-OPTN(S473E) (human) (UniProt Q96CV9); experiment: as above
# [9] = molecular target: hAG-OPTN(210-577, S473E) (human) (UniProt Q96CV9); experiment: as above
# [10] = molecular target: hAG-OPTN(190-577, S473E) (human) (UniProt Q96CV9); experiment: as above
# [11] = molecular target: hAG-OPTN(150-577, S473E) (human) (UniProt Q96CV9); experiment: as above
# [12] = molecular target: 3FLAG-hAG-OPTN(M44Q/L54Q, S473E) (human) (UniProt Q96CV9); experiment: co-IP; HeLa cells transiently expressing 3FLAG-hAG-OPTN and HA-Ash-6Ub; 1 mM DSP cross-linking, 1% NP-40 buffer (20 mM Tris-HCl pH 8.0, 150 mM NaCl, 1 mM EDTA), sonication, anti-DDDDK-tag gel 90 min at 4°C, immunoblot
# [13] = molecular target: 3FLAG-hAG-OPTN(4LA, S473E) (human) (UniProt Q96CV9); experiment: as above
binder,measurement,setting,value
B1,binding,[1],no binding
same,binding,[2],binds
same,binding,[3],no binding
same,binding,[4],no binding
same,binding,[5],binds
same,binding,[6],binds
same,binding,[7],no binding
same,binding,[8],binds
same,binding,[9],no binding
same,binding,[10],no binding
same,binding,[11],no binding
same,binding,[12],binds
same,binding,[13],no binding
